Laboratory results from the supplement of paper PMC8728848.
The list shows a part of the results.

Columns and labels:
Test in all cases: glycan array binding signal (z-score within array); higher = stronger binding
Details in all cases: glycan notation: IUPAC condensed, linker removed
[1] = target: Fuc(a1-2)Gal
Outline: (§1)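 Negative Z-scores can be read as non-binding. The Z-score is calculated within each array and then averaged across arrays of one protein sequence at different concentrations or buffers and across linkers. Arrays, 3228 in all, were curated from the Consortium for Functional Glycomics database and kept only where the protein sequence was available.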

[2] = target: Fuc(a1-2)Gal(b1-3)GalNAc
Outline: as §1

[3] = target: Fuc(a1-2)Gal(b1-3)GalNAc(a1-3)[Fuc(a1-2)]Gal(b1-4)Glc
Outline: as §1

[4] = target: Fuc(a1-2)Gal(b1-3)GalNAc(a1-3)[Fuc(a1-2)]Gal(b1-4)GlcNAc
Outline: as §1

[5] = target: Fuc(a1-2)Gal(b1-3)GalNAc(b1-3)Gal
Outline: as §1

[6] = target: Fuc(a1-2)Gal(b1-3)GalNAc(b1-3)Gal(a1-4)Gal(b1-4)Glc
Outline: as §1

[7] = target: Fuc(a1-2)Gal(b1-3)GalNAc(b1-4)[Neu5Ac(a2-3)]Gal(b1-4)Glc
Outline: as §1

[8] = target: Fuc(a1-2)Gal(b1-3)GlcNAc
Outline: as §1

[9] = target: Fuc(a1-2)Gal(b1-3)GlcNAc(b1-2)Man(a1-3)[Fuc(a1-2)Gal(b1-3)GlcNAc(b1-2)Man(a1-6)]Man(b1-4)GlcNAc(b1-4)GlcNAc
Outline: as §1

[10] = target: Fuc(a1-2)Gal(b1-3)GlcNAc(b1-2)Man(a1-3)[Fuc(a1-2)Gal(b1-3)GlcNAc(b1-2)Man(a1-6)]Man(b1-4)GlcNAc(b1-4)[Fuc(a1-6)]GlcNAc
Outline: as §1

[11] = target: Fuc(a1-2)Gal(b1-3)GlcNAc(b1-3)Gal(b1-4)Glc
Outline: as §1

[12] = target: Fuc(a1-2)Gal(b1-3)GlcNAc(b1-3)GalNAc
Outline: as §1

[13] = target: Fuc(a1-2)Gal(b1-3)GlcNAc(b1-3)[Fuc(a1-2)Gal(b1-3)GlcNAc(b1-6)]GalNAc
Outline: as §1

[14] = target: Fuc(a1-2)Gal(b1-3)GlcNAc(b1-3)[Gal(b1-4)GlcNAc(b1-6)]Gal(b1-4)Glc
Outline: as §1

[15] = target: Fuc(a1-2)Gal(b1-3)GlcNAc(b1-3)[Neu5Ac(a2-6)Gal(b1-4)GlcNAc(b1-6)]Gal(b1-4)Glc
Outline: as §1

[16] = target: Fuc(a1-2)Gal(b1-3)GlcNAc6S
Outline: as §1

[17] = target: Fuc(a1-2)Gal(b1-3)[Fuc(a1-4)]GlcNAc
Outline: as §1

[18] = target: Fuc(a1-2)Gal(b1-3)[Fuc(a1-4)]GlcNAc(b1-2)Man(a1-3)[Fuc(a1-2)Gal(b1-3)[Fuc(a1-4)]GlcNAc(b1-2)Man(a1-3)]Man(b1-4)GlcNAc(b1-4)GlcNAc
Outline: as §1

[19] = target: Fuc(a1-2)Gal(b1-3)[Fuc(a1-4)]GlcNAc(b1-2)Man(a1-3)[Fuc(a1-2)Gal(b1-3)[Fuc(a1-4)]GlcNAc(b1-2)Man(a1-6)]Man(b1-4)GlcNAc(b1-4)[Fuc(a1-6)]GlcNAc(b1-4)[Fuc(a1-6)]GlcNAc
Outline: as §1

[20] = target: Fuc(a1-2)Gal(b1-3)[Fuc(a1-4)]GlcNAc(b1-3)[Fuc(a1-3)[Gal(b1-4)]GlcNAc(b1-6)]Gal(b1-4)Glc
Outline: as §1

[21] = target: Fuc(a1-2)Gal(b1-3)[Fuc(a1-4)]GlcNAc(b1-3)[Gal(b1-4)GlcNAc(b1-6)]Gal(b1-4)Glc
Outline: as §1

[22] = target: Fuc(a1-2)Gal(b1-4)Glc
Outline: as §1

[23] = target: Fuc(a1-2)Gal(b1-4)Glc6S
Outline: as §1

[24] = target: Fuc(a1-2)Gal(b1-4)GlcNAc
Outline: as §1

[25] = target: Fuc(a1-2)Gal(b1-4)GlcNAc(b1-2)Man
Outline: as §1

[26] = target: Fuc(a1-2)Gal(b1-4)GlcNAc(b1-2)Man(a1-3)[Fuc(a1-2)Gal(b1-4)GlcNAc(b1-2)Man(a1-6)]Man(b1-4)GlcNAc(b1-4)GlcNAc
Outline: as §1

[27] = target: Fuc(a1-2)Gal(b1-4)GlcNAc(b1-2)Man(a1-3)[Fuc(a1-2)Gal(b1-4)GlcNAc(b1-2)Man(a1-6)]Man(b1-4)GlcNAc(b1-4)[Fuc(a1-6)]GlcNAc
Outline: as §1

[28] = target: Fuc(a1-2)Gal(b1-4)GlcNAc(b1-2)[Fuc(a1-2)Gal(b1-4)GlcNAc(b1-4)]Man(a1-3)[Fuc(a1-2)Gal(b1-4)GlcNAc(b1-2)Man(a1-6)]Man(b1-4)GlcNAc(b1-4)GlcNAc
Outline: as §1

[29] = target: Fuc(a1-2)Gal(b1-4)GlcNAc(b1-3)Gal(b1-4)GlcNAc
Outline: as §1

[30] = target: Fuc(a1-2)Gal(b1-4)GlcNAc(b1-3)Gal(b1-4)GlcNAc(b1-2)Man(a1-3)[Fuc(a1-2)Gal(b1-4)GlcNAc(b1-3)Gal(b1-4)GlcNAc(b1-2)Man(a1-6)]Man(b1-4)GlcNAc(b1-4)GlcNAc
Outline: as §1

[31] = target: Fuc(a1-2)Gal(b1-4)GlcNAc(b1-3)Gal(b1-4)GlcNAc(b1-3)Gal(b1-4)GlcNAc
Outline: as §1

[32] = target: Fuc(a1-2)Gal(b1-4)GlcNAc(b1-3)GalNAc
Outline: as §1

[33] = target: Fuc(a1-2)Gal(b1-4)GlcNAc(b1-3)[Fuc(a1-2)Gal(b1-4)GlcNAc(b1-6)]GalNAc
Outline: as §1

[34] = target: Fuc(a1-2)Gal(b1-4)GlcNAc(b1-3)[Fuc(a1-3)[Gal(b1-4)]GlcNAc(b1-6)]Gal(b1-4)Glc
Outline: as §1

[35] = target: Fuc(a1-2)Gal(b1-4)GlcNAc(b1-6)GalNAc
Outline: as §1

[36] = target: Fuc(a1-2)Gal(b1-4)GlcNAc6S
Outline: as §1

[37] = target: Fuc(a1-2)Gal(b1-4)[Fuc(a1-3)]GlcNAc
Outline: as §1

B1: Pwp5 ND (Candida glabrata) (protein)
chain: MGSSHHHHHHSSGLVPRGSHMASANPVPLTNVCYFPEEYPRQAGFRAITAGLASTILQGSVDELLNYSGLSSLTTQQTTTTTPNFQLPTLPLPTNVYGLTVVPLYLLVQLQGYFVPPVSGQYTFSLENTNDAAIIFFGNPSAFPCGDLSAWPQASADDITVTDGTFPSRTLFLKAGVAYPMRISYYNSLGSGNLAVSFTDPGGTKRTNWNGYIWRYNSCSTCTYT
**Q.** What does the source list for B1?
**A.** glycan array binding signal (z-score) [1]: -0.566; glycan array binding signal (z-score) [2]: -0.411; glycan array binding signal (z-score) [3]: -0.519; glycan array binding signal (z-score) [4]: -0.543; glycan array binding signal (z-score) [5]: 0.177; glycan array binding signal (z-score) [6]: 1.36; glycan array binding signal (z-score) [7]: -0.235; glycan array binding signal (z-score) [8]: -0.53; glycan array binding signal (z-score) [9]: 1.49; glycan array binding signal (z-score) [10]: -0.08; glycan array binding signal (z-score) [11]: -0.48; glycan array binding signal (z-score) [12]: -0.554; glycan array binding signal (z-score) [13]: 1.05; glycan array binding signal (z-score) [14]: -0.322; glycan array binding signal (z-score) [15]: -0.533; glycan array binding signal (z-score) [16]: -0.214; glycan array binding signal (z-score) [17]: 0.311; glycan array binding signal (z-score) [18]: 0.379; glycan array binding signal (z-score) [19]: 0.234; glycan array binding signal (z-score) [20]: -0.557; glycan array binding signal (z-score) [21]: -0.696; glycan array binding signal (z-score) [22]: -0.398; glycan array binding signal (z-score) [23]: -0.615; glycan array binding signal (z-score) [24]: -0.057; glycan array binding signal (z-score) [25]: -0.373; glycan array binding signal (z-score) [26]: -0.139; glycan array binding signal (z-score) [27]: 0.066; glycan array binding signal (z-score) [28]: 2.82; glycan array binding signal (z-score) [29]: 1; glycan array binding signal (z-score) [30]: 0.084; glycan array binding signal (z-score) [31]: -0.333; glycan array binding signal (z-score) [32]: -0.443; glycan array binding signal (z-score) [33]: 0.487; glycan array binding signal (z-score) [34]: -0.054; glycan array binding signal (z-score) [35]: 3.91; glycan array binding signal (z-score) [36]: -0.516; glycan array binding signal (z-score) [37]: -0.206
